B1: OR4K15 (parent)
chain: GUUAACGGUCAUAGGCCAUGGAAACUAGGAGCACCAUUUCGCUGCCAGUGAAGAAAUGAACAAAGAAAAUCUGGGCCAGGCAGGCAUCAAAAGAAAUAGUCUUGCGCUCAACCAGAAAGUCUGUAAUCAUUUUAAGGGUA

Read counts are not given, so values of variants with three or more changes are uncertain.

The variants in the data set derive from B1. In words: self-cleavage, relative activity (ratio to wild type); higher = more cleavage; in vitro, sequencing; the parent is a self-cleaving ribozyme.
In the case of GUUAACGGUCAUCGGCCUUGGGAACUAGGAGCACCGUUUCGCUGCCAGUGAAGAGAUGAACAGAGAAAAUCUGGGCCAGGCAGGCAUCAAAAGAAAUAGUCUUGCGCUCAACCAGAAGGUCUGUAAUCACUUUAAGGGUA, the self-cleavage turned out to be 0.7.

Consider GUUAACGGUCAUGGGCCAUGGGAACUAGGAGCACCAUUUCGCGGCCAGUGAAGAAGUGAACAAAGAAAAUCUGGGCCAGGCAGGCAUCAAAAGAAAUAGUCUUGCGCUCAACCAGAAAGUCUGUAAUCAUUUUAAGGGUA, for which the self-cleavage was 0.86.

Regarding GUUAACGGUCAUGGGCCAUGGAGACUAGGAGCACCAUUUCGCUGCCAGUGAAGAAAUGAACAAAGAGAAUCUGGGCCAGGCAGGCUUCAAAAGAAAUAGUCUUGCGCUCAACCAGAAAGUCUGUAAUCAUUUUAAGGGUA, the self-cleavage came out at 1.4.

Turning to GUUAACGGUCAUGGGCCAUGGAAACUAGGGGCCCCAUUUCGCUGCCAGUGAAGAAAUGAACAAAGAAAAUCUGGGCCAGGCAGGCAUCAGAAGAAAUAGUCUUGCGCUCAACCAGAAAGUCUGUAAUCAUUUUAAGGGUA, the self-cleavage came out at 0.53.

As to GUUAACGGUCAUGGGCCAUGGAAACUGGGAGCACCAUUACGCUGCCAGUGGAGAAAUGAACAAAGAAAAUCUGGGCCAGGCAGGCAUCAAAAGGAAUAGUCUUGCGCUCAACCAGAAAGUCUGUAAUCAUUUUAAGGGAA, the self-cleavage was 0.88.

On to GUUAACGGUCAUGGGCCAUGGAAGCUAGGAGCACCAUUUCGCUGCCAGUGAAGAAAUGAACAAAGAAAAUCUGGGCCAGGCAGGCAUCAAAAGAAAUAGUCUUGCGCUCAACCAGAAAGUCCGUAAUCAUUUUAAGGGUA, for which the self-cleavage came to 1.18.

Regarding GUUAACGGUCAUGGGCCAUGGAAACUAGGGGCACCAUUUCGCUGCCAGUGAAGAAAUGAACAAAGAGAAUCUGGGCCAGGCAGGCAUCAAAAGAAGUAGUCUUGCGCUCAACCAGAAGGUCUGUAAUCAUUUUAAGGGUA, the self-cleavage was found to be 0.97.

In the case of GUUAACGGUCAGAGGCCAUGGAAACUGGGAGCACCAUUUCGCUGCCAGUGAGGAAAUGAACAAAGAAAAUCUGGGCCAGGCAGGCAUCAAAAGAAAUGGUCUUGCGCUCAACCAGAAAGUCUGUAAUCAUUUUAAGGGUA, the self-cleavage was 0.76.

As to GUUAACGGUCAUGGGCCAUGGAAACUAGGUGCGCCAUUUCGCUGCCAGUGAAGAAAUGAAUAAAGAAAAUCUGGGCCAGGCAGGCAUCAAAAGAAAUAGUCUUGCGCUCAACCAGAAAGUCUGUAAUCAUUUUAAGGGUA, the self-cleavage was determined as 0.94.

For the variant GUUAACGGUCAUGGGCCGUGGAAACUAGGGGCACCAUUUCGCUGCCAGUGAAGAAAUGAACAAAGAAAAUCUGGGCCAGGCAGGCAUCAAGAGAAAUAGUCAUGCGCUCAGCCAGAAAGUCUGUAAUCAUUUUAAGGGUA, the self-cleavage came to 0.03.

Turning to GUUAACGGUCAUGGGCCAUGGAAACUUGGAGCGCCAUUUCGCUGCCAGUGAAGAAAUGAACAAAGAAAAUCUGGGCCAGGCAGGCAACAAAAGAAAUAGUCUUGCGCUCAACCAGAAAGUCUGUAAUCAUUUUAAGGGUA, the self-cleavage came to 0.66.

As to GUUAACGGUCAUGGGCCAUGGAAACUAGGUGCACCAUUCCGCUGCCAGUGAAGAAAUGAACAAAGAGAACCUGGGCCAGGCAGGCAUCAAAGGAAAUAGUCUUGCGCUCAACCAGAAAGUCUGUAGUCAUUUUAAGGGUA, the self-cleavage came to 0.47.

GUUAACGGUCAUGGGCCAUGGAAACUAGGAGCACCGUUUCGCUGCCAGUGAAGAAAUGAACAAAGAAAAUCUGGGCCAGGCAGGCAUCAAAAGAAAUAGUCUUGCGCUCAACCAGAGAGUCUGUAAUCAUUUUAAGGGUA: the self-cleavage came to 1.23.

Take GUUAACGGUCAUCGGCCAUGGAAGCUAGGAGCACCAUUUCGCUGCCAGUGAAGAAAUGAACAAAGAAAAUCUGGGCCAGGCAGGCAUCAAAAGAAAUAGUCUUGCGCCCAACCAGAAAGUCUGUAAUCAUUUUAAGGGUA: the self-cleavage is 0.1.

In the case of GUUAACGGUCAUCGGCCAUGGAAACUAGGAGCGCCAUUCCGCUGCCAGUGAAGAAAUGAACAAAGAAAAUCUGGGCCAGGCAGGCAUCAAAAGAAAUAGUCUUGCGCUCAACCAGAAAGUCUGUAAUCAUUUUAAGGGUA, the self-cleavage came to 0.74.

Take GUUAACGGUCAUGGGCCAUGGAAACUAGGAGCACCAUUUCGCUGCCGGUGAAGAAAUGAACAAAGAAAAUCUAGGCCUGGCAGGCGUCAAAAGAGAUAGUCUUGCGCUCAACCAGAAAGUCUGUAAUCAUUUUAAGGGUA: the self-cleavage was 0.22.

Take GUUAACGGUCAUGGGCCAUGGAAACUAGGAGCACCAUUUCGCUGCCAGUGGAGAAAUGAACAAAGAAAAUCUGGGCCAGGCAGGCAUCAAAAGAAAUAGUCUUGCGCUCAACCAGAUAGUCUGUAAUCAUUUUAAGGGUA: the self-cleavage is 1.01.

On to GUUAACGGUCAGAGGCCAUGGAAGCUUGGAGCACCAUUUCGCUGCCAGUGGAGAAAUGGACAAAGAAAAUCUGGGCCAGGCAGGCAUCAAAAGAAAUAGUCUUGCGCUCAACCAGAAAGUCUGUAAUCAUUUUAAGGGUA, for which the self-cleavage is 1.27.

Consider GUUAACGGUCAGAGGCCAUGGAAGCUAGGAGCACCAUUUCGCUGCCAGUGAAGAAAUGAACAAAGAAAAUCUGUGCCAGGCAGGCAUCAAAAGAAAUAGCCUUGCGCUCAACCAGAAAGUCUGUAAUCAUUCUAAGGGUA, for which the self-cleavage is 0.

As to GUUAACGGUCAUGGGCCAUGGAAACUAGGAGCACCAUUUCGCUGCCAGUGGAGAAAUGAACAAAGAAAAUCUGGGCCAGGCAGGCAUCAAAAGAAGUAGUCUUGCGCUCGACCAGAAAGUCUGUUAUCAUUUUAAGGGUA, the self-cleavage came out at 0.43.

Turning to GUUAACGGUCAUGGGCCAUGGAGACUAGGAGCACCAUUUCGCUGCCAGUGAAGAAAUGAACGAAGAAAGUCUGGGCCAGGCAGGCAUCAAAAGAAAUAGUCUUGCGCUCAACCAGAAAGUCUGUAAUCAUUUUAAGGGUA, the self-cleavage came out at 0.57.

Values taken from the RNAGym collection of RNA variant scans (doi:10.7554/elife.90254).
